Experimental data published in the BET-seq Pho4 binding data (Le et al. 2018).
Some of the results follow. The energies were worked out here from pooled read counts, against the library average; single values are noisy.

What follows are sequences tested against T1, Pho4 (S. cerevisiae) (UniProt P07270) (assay: relative binding free energy (BET-seq); higher = weaker binding). Conditions: reference: library average.
T1 sequence: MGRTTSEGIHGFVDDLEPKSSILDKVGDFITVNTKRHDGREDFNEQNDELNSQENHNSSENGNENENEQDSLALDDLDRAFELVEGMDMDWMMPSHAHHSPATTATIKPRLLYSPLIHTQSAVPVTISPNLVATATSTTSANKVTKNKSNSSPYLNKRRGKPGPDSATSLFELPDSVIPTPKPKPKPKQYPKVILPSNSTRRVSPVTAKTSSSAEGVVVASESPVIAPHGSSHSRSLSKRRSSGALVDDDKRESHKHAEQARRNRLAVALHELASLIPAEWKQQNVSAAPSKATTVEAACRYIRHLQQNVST

Sequence | relative binding free energy [kcal/mol]
ATAGTCACGTGGGTAT | 0
GAGTTCACGTGTTGTC | 0.37
TTTTACACGTGTTCAT | 0.19
CTGCGCACGTGGCTGG | -0.11
TGTCACACGTGATGTT | 0.11
AGAGTCACGTGTGGTA | 0.02
TATTCCACGTGGAGGG | -0.03
TGTCGCACGTGACGTT | -0.01
TTGTTCACGTGTTATC | 0.25
TGTGTCACGTGAATTG | 0.3
GGCGGCACGTGTTTCG | -0.07
ATATACACGTGATTTT | 0.1
AGGGCCACGTGGGGAG | -0.16
GTGTTCACGTGCCTGT | 0.24
TAAATCACGTGTATTT | 0.11
GTCAGCACGTGGGATA | -0.05
CTGTTCACGTGGTTGA | 0.26
ATGTTCACGTGGGCCG | 0.09
TGTACCACGTGGTATT | -0.15
TAGTTCACGTGTTTTT | 0.33
GCGGTCACGTGATAGG | 0.27
AATTGCACGTGGATAT | 0.09
ACAAGCACGTGTTGGT | -0.03
ATGAGCACGTGTGATA | -0.09
GGTGGCACGTGACGGC | 0.13
GAGTGCACGTGGTTGG | -0.08

Sequence | relative binding free energy [kcal/mol]
CGAGGCACGTGGGAGT | -0.13
TAATTCACGTGTGTTC | 0.33
CGGAGCACGTGGGAGT | -0.19
CGGGTCACGTGGCTGT | -0.03
TGGTTCACGTGGTTCG | 0.24
CAGGGCACGTGGTGCG | -0.1
TTACGCACGTGGTGGC | -0.15
TTGAGCACGTGTCTTG | -0.12
TAGAGCACGTGATGAG | 0.13
TTGGTCACGTGTACTA | 0.04
ATATGCACGTGTTCGA | 0.08
GGACGCACGTGAGCGT | 0.26
ATCGTCACGTGATTGG | 0.28
TTTCTCACGTGGGATT | 0.08
AGGGTCACGTGGTCAA | 0.05
TTCTTCACGTGAGCGG | 0.24
GAAGGCACGTGTTTTA | -0.07
TTGTGCACGTGAGTAG | 0.17
GGTGTCACGTGTGGAA | 0.21
ATCGGCACGTGTAGGG | -0.08
CTGTGCACGTGATGGC | 0.12
ACGGACACGTGGATGT | 0
CTGGACACGTGATTGT | 0.16
GGGAGCACGTGTGAAT | -0.06
AGGTTCACGTGAAGTC | 0.34
CTGGGCACGTGGCTGA | -0.21

Sequence | relative binding free energy [kcal/mol]
TTATTCACGTGCCAGT | 0.21
TGGTCCACGTGGACGT | 0.07
GTTAACACGTGTGGAT | 0.14
GTGTTCACGTGGCTTT | 0.24
GGGGTCACGTGGTATT | 0.04
CTGTTCACGTGGGCTA | 0.12
CGTTTCACGTGATTTA | 0.34
GGTATCACGTGTGTAG | 0.24
GGTGACACGTGAGTCG | 0.32
GAGTACACGTGGTTTC | 0.3
AGTTACACGTGCGTGA | 0.04
TGTGGCACGTGAACCG | 0.19
TGATACACGTGATTAT | 0.25
TCTTTCACGTGATATG | 0.26
GGCTCCACGTGGGAGG | -0.12
TTAATCACGTGTGTGG | 0.13
GTTAGCACGTGGCCTG | -0.15
TTATTCACGTGCGCGG | 0.07
GAAGACACGTGGTGAT | 0.07
ATAGACACGTGGATGT | 0.15
TATCGCACGTGAGTTG | -0.03
GGTTGCACGTGGGAGT | 0.04
TTCAGCACGTGGTGAG | -0.14
AAGGTCACGTGTCAAG | 0.29
TGGGCCACGTGAGTTA | 0.14
TGTTGCACGTGTGTCA | -0.03

Sequence | relative binding free energy [kcal/mol]
TTTGTCACGTGTCAGA | 0.05
CATGGCACGTGGTCTG | -0.23
GCGGCCACGTGGTTGT | 0.01
CTATGCACGTGGAGGT | 0.06
TTAGACACGTGTTTGG | -0.03
TCTTGCACGTGGATTT | 0.14
GCTATCACGTGGGATG | 0.02
TATTTCACGTGGGGAT | 0.3
TTAATCACGTGAAGGT | 0.32
GTTCTCACGTGGTGGC | 0.07
TGGATCACGTGGGGAC | 0.03
TTGGTCACGTGTGCAT | 0.12
GATAGCACGTGGCTTG | -0.09
GGACACACGTGGTTTT | 0.07
ATAATCACGTGTGAAT | 0.12
GGGCTCACGTGGGTAG | 0.27
TGGTTCACGTGGGCAC | 0.11
GTGTGCACGTGTTGTC | 0.01
CAAGTCACGTGTTGTG | 0.08
GTAAACACGTGAGTAG | 0.27
CTTTGCACGTGAGTGG | 0.14
TGTGTCACGTGCACTT | 0.03
GCTATCACGTGAGTGT | 0.14
ATGTGCACGTGCTTGT | -0.09
GCGAACACGTGGGAGG | -0.08
GAAGTCACGTGTGTTT | 0.26

Sequence | relative binding free energy [kcal/mol]
TTCATCACGTGTTAAT | 0.05
AGGTCCACGTGGGGTA | -0.12
AATTGCACGTGTAGTC | 0.11
TAGTGCACGTGCGGTA | -0.09
GAGTGCACGTGGGCTT | -0.09
AGATGCACGTGGTTGC | -0.11
GGTTACACGTGTTAAG | 0.13
TGCGTCACGTGGATGA | -0.09
GAGGACACGTGAGTGT | 0.27
GGTGCCACGTGGTAGC | -0.08
TCGTTCACGTGTACGT | 0.29
TGTTACACGTGTGTGT | 0.07
TAGTACACGTGGGTAC | -0.1
TAGTCCACGTGGGTGC | 0.01
TTGGGCACGTGGTTCA | -0.11
TTGGGCACGTGAGTGC | 0.14
CGGCGCACGTGTGTGT | -0.13
GGGAGCACGTGGGCTT | -0.08
TTTGGCACGTGTCAAT | -0.22
CGGGTCACGTGGGATT | 0
ATTATCACGTGTGGCA | 0.19
AATGGCACGTGAGTTA | 0.21
CAAGGCACGTGGGTGT | -0.23
TAGGGCACGTGTGCTG | -0.15
ATGGCCACGTGGGGTA | -0.18
TGTTTCACGTGACTAG | 0.31

Sequence | relative binding free energy [kcal/mol]
GGGGGCACGTGATCTG | -0.07
GATTTCACGTGCCGGT | 0.39
TATGTCACGTGTATGG | 0.08
TGTAACACGTGGGTCG | -0.11
TTTAGCACGTGGGTAT | -0.09
CTTTTCACGTGGTAGG | 0.28
TGTCGCACGTGCTTTT | -0.12
GGTAGCACGTGATTGA | 0.14
CTGCTCACGTGTGTGG | 0.13
GGGTTCACGTGGATTT | 0.33
TTTACCACGTGTTAAG | 0.15
TAGATCACGTGTTTTT | 0.22
TTGGTCACGTGCCTTA | 0.06
TTCAGCACGTGTTCGT | -0.07
TGCTGCACGTGGAGTG | -0.06
TAGCGCACGTGTGTAA | -0.1
ATTCTCACGTGTGGTG | 0.13
GTGTACACGTGAGAGT | 0.18
TATTGCACGTGCGGTG | -0.1
TTTTGCACGTGGAGAT | -0.06
TTAGTCACGTGCATGA | 0.03
TGGGACACGTGAGGCA | 0.23
TACGTCACGTGTGGAG | 0.18
TTTTTCACGTGAAGGA | 0.44
AATCGCACGTGTGTAT | 0.15
GGTGGCACGTGGGCGG | -0.19

Sequence | relative binding free energy [kcal/mol]
TACGGCACGTGTGCGG | -0.11
TTGTTCACGTGTATAT | 0.15
GTGCGCACGTGTGATT | 0.08
GATTCCACGTGGTGGG | 0.04
TATATCACGTGGTGGC | 0.06
TGGCGCACGTGCTGTG | -0.24
GGTTACACGTGATGGG | 0.36
CCGGGCACGTGCTTGG | -0.09
TGTTACACGTGCACGG | 0.09
CGTTTCACGTGAGGTT | 0.38
AAAGCCACGTGGTGTG | -0.15
GTTGGCACGTGAGATC | 0.24
ATTAGCACGTGGGTGT | -0.18
GGACGCACGTGGGGGG | -0.22
TTGCGCACGTGGTACT | -0.11
GCATTCACGTGGTGGG | 0.31
GCGTTCACGTGGTTGA | 0.33
CGGGGCACGTGGTGGA | -0.13
CTTCACACGTGTTGGG | 0.11
TATTGCACGTGCGTTT | -0.2
GTTGTCACGTGTTTAA | 0.09
GTGGACACGTGGAATT | 0.23
GTAATCACGTGATAGT | 0.13
GCTGGCACGTGCGGAG | -0.11
TTGAACACGTGTATGT | 0.07
GGCGGCACGTGGTCGG | -0.06

Sequence | relative binding free energy [kcal/mol]
TTTGTCACGTGGTGTT | 0.03
TTTAGCACGTGAGGTT | 0.11
TATTTCACGTGAGCGG | 0.45
TTCGTCACGTGGGCTG | -0.12
CTAGTCACGTGTAGAG | 0.17
GGTCGCACGTGAATGG | 0.25
GCGTTCACGTGTAGTT | 0.1
TGGTCCACGTGGGAGA | 0.04
GTAGGCACGTGTATGC | -0.2
CTGTTCACGTGGGGTC | 0.12
GTGTTCACGTGGGTTC | 0.36
TGTGTCACGTGCGGCT | -0.04
TTTAGCACGTGGTCGT | -0.19
TTTTACACGTGTGAGG | 0.13
TTATTCACGTGATCAG | 0.28
TGGCTCACGTGGGCTA | 0.19
AGGGTCACGTGGAAAA | 0.26
ATGTCCACGTGATGTA | 0.21
TATAACACGTGTGATT | -0.09
ATGGGCACGTGTAGAT | 0.17
ATGGGCACGTGTCGGA | -0.06
ATTCACACGTGTATGT | 0.19
TTATGCACGTGTAAAA | 0.08
ATTTTCACGTGTGAAG | 0.21
TAGTTCACGTGAGGCT | 0.4
ATGGGCACGTGGTGAG | -0.14

Sequence | relative binding free energy [kcal/mol]
TTAAGCACGTGGAAGG | -0.04
CTTAGCACGTGGGTGA | -0.24
TGTAACACGTGGTTTA | 0.08
TATTGCACGTGTAGTG | 0.08
AATAACACGTGGGGTC | -0.07
TCGTTCACGTGTTGTC | 0.42
GGATACACGTGGAAGG | 0.16
GAGCACACGTGGGGTT | 0.01
TCTTGCACGTGGGAGA | 0
TATGGCACGTGGCTTA | -0.18
TTCAGCACGTGTTTAA | -0.06
ATAATCACGTGGGGGA | -0.13
AGCTGCACGTGTGTTA | -0.09
ATTATCACGTGTAGCT | 0.16
TCTGACACGTGGTTTA | -0.02
ATGGCCACGTGAGGTA | 0.11
GTTGCCACGTGATATT | 0
AATTGCACGTGTGGTG | 0.06
AAGGTCACGTGCGAGT | 0.13
GTTTCCACGTGTTTAT | 0.1
TTCGGCACGTGGTTCA | -0.08
ATAGTCACGTGAAAGT | 0.23
